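The compound was tested at five concentrations on cells cultured in 96-well plates, with a 48-hour exposure period. The concentration for 50% growth inhibition is given as GI50.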 Activity calls are given as the source filed them. No stated cut-off is given here; in the data, active = GI50 up to about 1.1 µM and inactive = higher. Some results are limits rather than exact numbers.

In this assay the test system is NCI-H322M. Kind of assay: growth of human tumour cells (NCI), 48 h.
Consider `Cn1c(=O)c2c(nc(NCCNc3nc4c(c(=O)n(C)c(=O)n4C)n3C)n2C)n(C)c1=O`, for which the GI50 was inactive: > 100 µM.
For the compound `C/C(=N/Nc1nc(C)cc(O)n1)C(=O)O`, the GI50 was inactive: > 100 µM.
For `CN1C(=O)CC(CC(=O)C2CCCCC2=O)CC1=O` (stereo unspecified), the GI50 is inactive: > 100 µM.
For `Sc1ncnc2c1ncn2Cc1ccco1`, the GI50 was inactive: > 100 µM.
For `Cc1ccc(/N=C/c2ccc3c(c2)OCO3)cc1C`, the GI50 was inactive: > 100 µM.
As to `CC(=O)OC(C)(C)C1CCC(C)(C(O)COc2ccc(CCNC(=O)c3ccccc3)cc2)O1` (stereo unspecified), the GI50 was inactive: > 100 µM.
As for `Oc1ccc(Br)cc1/C=N/c1c(NC2CCCCC2)oc2ccc(Br)cc12`, the GI50 was inactive: 40.9 µM.
For `CC(C)C(NCc1c2ccccc2[n+]([O-])c2ccccc12)C(=O)O` (stereo unspecified), the GI50 is inactive: 45.8 µM.
As to `Cn1c(N)c(-c2c3ccccc3nc3ccccc23)c(=O)n(C)c1=O`, the GI50 was inactive: > 100 µM.
Turning to `[N-]=[N+]=NCC1OCC(O)C(OCc2ccccc2)C1OCc1ccccc1` (stereo unspecified), the GI50 was inactive: > 100 µM.
To `NC1=NN(c2ccccc2)C2(c3ccncc3C(=O)O)C1C(N)=NN2c1ccccc1` (stereo unspecified) belongs inactive: > 100 µM; to `COC(=O)C(=O)C(C(=O)C(=O)Nc1ccccc1C(N)=O)c1nc2ccc(Cl)cc2nc1O` (stereo unspecified), inactive: > 100 µM; to `C/N=c1\sc2nc(C#N)c(C#N)nc2n1C`, inactive: 17.8 µM.
For `NC1=NS(=O)(=O)Nc2nc(-c3ccc(Cl)cc3)[nH]c21`, the GI50 was inactive: > 100 µM.
Take `Cc1cn(C2CC(n3cc(Cn4ccc(=O)[nH]c4=O)nn3)C(CO)O2)c(=O)[nH]c1=O` (stereo unspecified): the GI50 was inactive: > 100 µM.
On to `COc1ccc2c3c(ccc2c1)NC(C(=O)O)CC3` (stereo unspecified), for which the GI50 was inactive: > 100 µM.
With `O=C1c2c(ccc3c2CCC3)CC12Cc1cc3c(cc1C2)CCC3` the figure was inactive: > 100 µM; with `NC(CCCC(N)P(=O)(O)c1ccccc1)P(=O)(O)c1ccccc1` (stereo unspecified), inactive: > 261 µM; with `COc1cnc2cc(C(=O)O)c3ccccc3c2c1`, inactive: > 100 µM.
On to `C/C(=N/NC(N)=S)c1ccc2ccccc2c1`, for which the GI50 is inactive: 52.1 µM.
With `Cc1nc2c(n1CC(C)(C)C)C(=O)c1ccccc1C2=O` the figure was inactive: > 100 µM; with `CCc1c(-c2ccc(OC)cc2)c(=O)oc2cc(O)ccc12`, inactive: 35.7 µM; with `O=P(O)(O)c1ccccc1Oc1ccccc1`, inactive: > 100 µM.
In the case of `O=C1/C(=C/c2ccccc2O)N=C(c2ccccc2)N1C1Nc2cc3c(cc2S1)NC(N1C(=O)/C(=C/c2ccccc2O)N=C1c1ccccc1)S3` (stereo unspecified), the GI50 was inactive: 66.5 µM.
`c1ccc2c(c1)CCN1CCc3ccccc3C1C2` (stereo unspecified): the GI50 is inactive: 72.9 µM.
To `CCOC(=O)c1cc2cc(CSc3ccccc3)ccc2oc1=O` belongs inactive: > 100 µM.
In the case of `COC(=O)C1SC(N(C)c2ccccc2)=NC12c1ccccc1Nc1ccccc12` (stereo unspecified), the GI50 is inactive: 25.8 µM.
To `CCOC(=O)C(O)(CC1=NC(C(=O)OC)(C(=O)OC)C(c2cccc(C=O)c2)O1)C(=O)OCC` (stereo unspecified) belongs inactive: > 100 µM; to `N#C/C(=C\n1ccc(=O)[nH]c1=S)C(N)=O`, inactive: > 100 µM.
As to `C[C@]12CC[C@@H]3c4ccc(O)cc4CC[C@H]3[C@@H]1CC[C@@H]2OC(=O)CCc1ccccc1`, the GI50 was inactive: 20.6 µM.
On to `O=C(C[n+]1ccccc1)NNC(=O)/C(=C/c1ccc2c(c1)OCO2)NC(=O)c1ccccc1`, for which the GI50 is inactive: > 100 µM.
Take `Cc1cc(C)nc(NS(=O)(=O)c2ccc(NC(=O)c3cccc4c(Nc5ccc(S(=O)(=O)Nc6cc(C)on6)cc5)c5ccccc5nc34)cc2)n1`: the GI50 was inactive: 13.6 µM.
With `CC(=O)OCC1OC(On2ccccc2=S)C(OC(C)=O)C(OC(C)=O)C1OC(C)=O` (stereo unspecified) the figure was inactive: > 100 µM; with `Cc1c(CCN2CCOCC2)c(N2CCOCC2)n2c(nc3ccccc32)c1C#N`, inactive: > 10 µM; with `CC(=O)NNc1nc(C)c(C(=O)NNC(=O)C(=O)Nc2ccc(Cl)cc2Cl)s1`, inactive: 47 µM.
With `CC(NO)/C(=N/O)c1ccco1` (stereo unspecified) the figure was inactive: > 10 µM.
As for `CC1C(C#N)(C#N)C(C#N)=C(N)C1(C)[N+](=O)[O-]` (stereo unspecified), the GI50 is inactive: > 100 µM.
With `CC(=O)Oc1cc(OC(C)=O)c2c(=O)c3ccccc3[nH]c2c1` the figure was inactive: 20.5 µM; with `Cc1ccc(NC(=O)C2C(=O)N(c3ccc(C)cc3)C(=O)/C2=N\NC(N)=S)cc1` (stereo unspecified), inactive: > 100 µM.
With `COc1cc2nc(-c3cccs3)nc(Nc3ccccc3C(=O)NN)c2cc1OC` the figure was inactive: > 100 µM.
As for `CCSC1=N/C(=C\c2ccco2)C(NN)=N1`, the GI50 is inactive: > 50 µM.
`C=CCn1c(=O)c2ccccc2[n+]2c(C)c(C(=O)OCC)sc12`: the GI50 is inactive: > 100 µM.
With `Cc1cc(C)nc(NC(=O)c2ccc(Br)s2)c1` the figure was inactive: > 100 µM; with `O=C(CCC(NC(=O)OCc1ccccc1)C(=O)OCc1ccccc1)Nc1ccc(OCc2ccccc2)cc1` (stereo unspecified), inactive: > 31.6 µM; with `O=C(Nc1cccc(C(F)(F)F)c1)c1cc(-c2ccccc2)nc(S)n1`, inactive: > 100 µM.
`C/C(=N\O)c1cccc[n+]1Cc1ccccc1`: the GI50 is inactive: > 100 µM.
With `Cc1cccc(CC(C)(C)C)c1NC(=O)C(=O)C(C(=O)c1ccc2ccccc2c1)C1OC(=O)c2ccccc21` (stereo unspecified), the GI50 was inactive: 6.01 µM.
For the compound `N#Cc1cc([N+](=O)[O-])ccc1NC(=O)C(F)(F)F`, the GI50 was inactive: > 100 µM.
To `CCCn1c(SCC)c2cc3cc4ccccc4cc3cc2c1-c1nc(F)nc(F)n1` belongs inactive: > 100 µM; to `c1ccc2c(c1)N=c1ccccc1=P21c2ccccc2Nc2ccccc21`, active: 0.47 µM.
As for `CC(C)c1c(O[Si](C(C)C)(C(C)C)C(C)C)cc2c(c1O)CC[C@H]1C(C)(C)CCC[C@]21C`, the GI50 was inactive: > 100 µM.
On to `NC(CNc1ccc(O)cc1)C(=O)O` (stereo unspecified), for which the GI50 is inactive: > 100 µM.
For `CC(C)NC(C)C(C)c1ccccc1` (stereo unspecified), the GI50 was inactive: > 100 µM.
Take `NC1=NC(=O)C(CC(=O)Nc2ccc(Cl)cc2Cl)S1` (stereo unspecified): the GI50 was inactive: > 100 µM.
As for `[N-]=[N+]=C1C(=O)C2CC3CC1CC2C3` (stereo unspecified), the GI50 was inactive: > 100 µM.
Regarding `O=C(Nc1cccc(F)c1)c1cc2ccc(O)cc2o/c1=N\c1cccc(F)c1`, the GI50 was inactive: 5.61 µM.
On to `O=C1c2cccc(O)c2C(=O)c2c(OC3OC(CO)C(O)C(O)C3O)cccc21` (stereo unspecified), for which the GI50 is inactive: 32.6 µM.
With `C=C1CC(OC)(C(OC)C(=O)N[C@H]2OCO[C@H]3C2O[C@H](C[C@@H](COC)OC)C(C)(C)C3OC)O[C@H](C)[C@@H]1C` (stereo partly specified) the figure was active: 1 µM; with `CC(C)(C)OC(=O)NC1CCC[C@H]1O` (stereo partly specified), inactive: > 100 µM.
Take `Cc1cnc2[nH]c(-c3cccc(Cl)c3)cc(=O)c2c1`: the GI50 was active: 0.0813 µM.
Take `CC(=O)Oc1cc(/C=C/c2ccc(O)cc2)cc(OC(C)=O)c1`: the GI50 was inactive: 38 µM.

(Values after ChEMBL document CHEMBL1201862, “PubChem BioAssay data set” (2004).)
